Out of some 110,000 compounds screened, about 230 (0.21%) showed an effect of 50% or more. Some of the results follow.
These compounds were tested against DPAP1 (Plasmodium falciparum, UniProt Q8IIJ9) (assay: primary screen, percent inhibition; read by cleavage of a fluorogenic dipeptide substrate; higher = more effect of the substance).
Set-up: species or system P. falciparum D10 trophozoite lysates; single well
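Further: 30 min substrate incubation versus DMSO and 10 µM JCP410 controls.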

Sequence of DPAP1 (Q8IIJ9 whole entry, looked up): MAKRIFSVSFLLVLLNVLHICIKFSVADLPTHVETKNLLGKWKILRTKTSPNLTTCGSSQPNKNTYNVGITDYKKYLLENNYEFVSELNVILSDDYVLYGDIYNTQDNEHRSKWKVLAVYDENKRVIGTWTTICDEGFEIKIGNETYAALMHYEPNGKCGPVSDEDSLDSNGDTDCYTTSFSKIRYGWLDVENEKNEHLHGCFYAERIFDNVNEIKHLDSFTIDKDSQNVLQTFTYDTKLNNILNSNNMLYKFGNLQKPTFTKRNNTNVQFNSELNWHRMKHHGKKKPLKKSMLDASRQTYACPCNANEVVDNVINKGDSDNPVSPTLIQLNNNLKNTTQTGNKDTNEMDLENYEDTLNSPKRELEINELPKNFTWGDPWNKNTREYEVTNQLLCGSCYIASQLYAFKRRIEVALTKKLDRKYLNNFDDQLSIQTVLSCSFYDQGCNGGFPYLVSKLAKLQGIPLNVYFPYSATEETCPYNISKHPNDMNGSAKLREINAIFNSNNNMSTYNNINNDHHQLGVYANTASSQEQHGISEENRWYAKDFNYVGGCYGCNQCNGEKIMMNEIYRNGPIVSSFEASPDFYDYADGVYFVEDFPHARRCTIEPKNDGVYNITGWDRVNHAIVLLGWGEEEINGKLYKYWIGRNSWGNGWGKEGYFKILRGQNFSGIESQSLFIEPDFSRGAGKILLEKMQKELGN

Row | Structure (SMILES) | % Inhibition @ 10 uM
1 | COc1cc(OC)cc(C(=O)Nc2nc(-c3ccc(Br)cc3)cs2)c1 | -3.02%
2 | O=C(NCc1ccco1)C1C2/C=C\CCCCC21 (stereo not drawn) | -3.01%
3 | CCOC(=O)c1cc(S(=O)(=O)NC2CCCCCC2)cn1C | -1.06%
4 | Cc1ccc(C2C(C#N)=C(N)Oc3ccc4ccc(O)cc4c32)cc1 (stereo not drawn) | 3.46%
5 | COc1ccccc1C(O)c1nc2ccccc2n1C(C)C (stereo not drawn) | 1.72%
6 | Cc1cccn2c(=O)c(/C=C(\C#N)C(=O)NCc3ccco3)c(Oc3ccccc3Cl)nc12 | 0.315%
7 | COc1ccc(Br)cc1/C=C/C(=O)c1cccs1 | -1.32%
8 | COC(=O)c1ccc(C2c3c(oc4cc(C)c(C)cc4c3=O)C(=O)N2CCCN2CCOCC2)cc1 (stereo not drawn) | -1.11%
9 | Cc1nn(CC(=O)N(C)Cc2ccccc2)c(=O)c2nn(-c3ccccc3)c(C)c12 | 2.48%
10 | Cc1ccc(Cn2c(C)c(CNCc3ccc4c(c3)OCO4)c(C(=O)O)c2C)cc1 | 1.41%
11 | CCC(=O)NCCCc1nc2ccccc2n1Cc1ccc(Cl)cc1 | 2.73%
12 | Nc1c(C(=O)Nc2ccccc2C(F)(F)F)sc2nc3c(cc12)CCC3 | -6.2%
13 | O=C(CCS(=O)(=O)Cc1ccccc1F)NCc1ccc(F)cc1 | -1.21%
14 | C1=C(N2CCCCC2)Cc2ccccc21 | -0.988%
15 | COc1ccc(C(=O)N2CCN(Cc3c[nH]c4ccccc34)CC2)cc1OC | -3.4%
16 | CN1CCC(NCCc2cccc(F)c2)CC1 | -5.11%
17 | OC1c2ccccc2CCc2sccc21 (stereo not drawn) | -2.87%
18 | CCOc1ccc(N2C(=O)CC(N3CCCCC3CC)C2=O)cc1 (stereo not drawn) | -1.74%
19 | CC1CCCCN1C(=O)Cn1ncc2c3ccccc3nc-2c1O (stereo not drawn) | 2.59%
20 | Cc1cccc(OCc2nc(C#N)c(NCCc3ccccc3)o2)c1 | -1.98%
21 | CCOC(=O)N1CCN(CC(O)COc2cc(C)ccc2C)CC1 (stereo not drawn) | -5.35%
22 | O=C(Nc1ccccc1C(=O)O)c1ccc(C(=O)Nc2ccccc2C(=O)O)cc1 | -1.91%
23 | COc1ccc(S(=O)(=O)N(CC(=O)N2CCCCC2)c2ccc(Cl)cc2)cc1 | -0.473%
24 | COc1cc(C)c(CNc2cc(C)cc(C)c2)cc1C | -8.04%
25 | Cc1c2cnn(CC(=O)N3CC(C)CC(C)C3)c(=O)c2c(C)n1Cc1ccccc1 (stereo not drawn) | -0.447%
26 | COCc1cc(C)nc2sc(C(=O)N3CCN(C)CC3)c(N)c12 | 6.49%

Row | Structure (SMILES) | % Inhibition @ 10 uM
27 | Cc1ccc2[nH]c(C)c(CCC(N)=O)c2c1 | -2.51%
28 | COc1cc(C=C2C(=O)NC(=O)NC2=O)cc(OC)c1O | 5.91%
29 | CC(=O)c1c(O)c2cccc3c2n(c1=O)CCC3 | -5.35%
30 | Cc1ccccc1C(=O)N(Cc1ccccc1)C(C)C | 5.43%
31 | O=C(CN1CCCCC1)Nc1nc(-c2ccc(Br)cc2)cs1 | -0.687%
32 | CC1(C)CC(=O)C2=C(C1)OC(N)=C(C#N)C2c1ccoc1 (stereo not drawn) | -0.591%
33 | CC(=O)c1ccc(NC(=O)c2cc3nc4c(c(C(F)(F)F)n3n2)CCCC4)cc1 | -3.26%
34 | O=c1[nH]c2ccccc2c(=O)n1CCSc1ccccn1 | -2.8%
35 | CC1CC(C)CN(C(=O)c2cn(C3CCCC3)c(=O)c3c2c2ccccc2n3C)C1 (stereo not drawn) | 1.85%
36 | CCc1ccc2nc(N3CCC(C(=O)NCc4cccs4)CC3)sc2c1 | 1.07%
37 | O=C(O)CCCCCN1C(=O)C2CC=CCC2C1=O (stereo not drawn) | -2.8%
38 | N#C/C(=C\c1ccc([N+](=O)[O-])o1)c1nc(-c2ccc(-c3ccccc3)cc2)cs1 | -0.693%
39 | Cc1ccc(NC(=O)C(C)Oc2ccccc2C)c(C)c1 (stereo not drawn) | 6.79%
40 | O=C(c1cccs1)N1CCN(Cc2ccc3c(c2)OCO3)CC1 | 1.57%
41 | O=C(c1ccccc1)c1ccc2nc(NCCCN3CCOCC3)c3nncn3c2c1 | 9.5%
42 | COc1ccc(C(=O)N2CCN(Cc3ccccc3F)CC2)cc1OC | -11.9%
43 | CCC(=O)N1c2ccccc2N=C2CC(c3ccccc3)CC(O)=C2C1c1ccco1 (stereo not drawn) | -0.988%
44 | CCC1CCCCN1CCCNC(=O)c1ccc2c(c1)c(C)c(C)n2C (stereo not drawn) | -3.39%
45 | CC(=O)N/C(=N\OCc1ccc(Br)cc1)c1nonc1NC(C)=O | -1.47%
46 | COc1ccccc1Nc1cc(C)nc2ccccc12 | -8.33%
47 | Cc1cc(Cl)cc(C)c1OCCOCCN1CCNCC1 | 2.95%
48 | CCC(CC)C(=O)Nc1cccc(NC(=O)C(CC)CC)n1 | -3.26%
49 | CCN(CC)C(=O)c1sc(NC(=O)C2CC2c2ccccc2)c(C#N)c1C (stereo not drawn) | -0.941%
50 | COCCN1C(=O)c2ccccc2C(C(=O)Nc2ccc(Cl)cn2)C1c1cccs1 (stereo not drawn) | 4.33%
51 | C=CCNC(=O)CN(c1cc(Cl)ccc1C)S(=O)(=O)c1ccc(C)cc1 | -5.19%
52 | CCCC1CCc2c(sc(NC(=O)CCCC(=O)O)c2C(N)=O)C1 (stereo not drawn) | 0.687%

Row | Structure (SMILES) | % Inhibition @ 10 uM
53 | CC1=NN(c2ccccc2)C(=O)C1C(=O)c1ccccc1Br (stereo not drawn) | 2.55%
54 | COc1cc2sc(NC(=O)c3cccc(C)c3OC)nc2cc1Cl | -0.403%
55 | CCN(Cc1ccc(OC)cc1)S(=O)(=O)c1nnc(NC(=O)C(C)C)s1 | -2.87%
56 | O=C1OC(C2CCCCC2)=N/C1=C\c1ccc2c(c1)OCO2 | -1.82%
57 | Oc1cc(-c2ccccc2)c2ccccc2n1 | -1.06%
58 | COc1cc2nc(S)nc(NCc3ccccc3)c2cc1OC | -2.83%
59 | CCCCN(CCCNC(=O)C1CCN(S(=O)(=O)N2CCOCC2)CC1)Cc1ccccc1 | 2.35%
60 | CC(C)=C1C2C=CC1C1C(=O)N(c3cc(C)ccc3C)C(=O)C21 (stereo not drawn) | -1.44%
61 | COc1ccc(/C=c2\sc3nc(=O)c(Cc4ccc(Cl)cc4)nn3c2=O)cc1 | 3.93%
62 | CCC(C)n1c(=O)c2sccc2n2c(CCCC(=O)NCc3ccc(F)cc3)nnc12 (stereo not drawn) | -1.59%
63 | COc1ccc(C2CC(c3ccc(-c4ccccc4)cc3)Nc3nnnn32)cc1 (stereo not drawn) | -7.08%
64 | CCN(CC)CCNC(=O)c1ccc(N2CCN(C)CC2)nc1 | -0.116%
65 | CCOC(=O)c1[nH]c2ccccc2c1NC(=O)C(c1ccccc1)c1ccccc1 | 4.14%
66 | Cc1cc(C)nc(SCC(=O)c2ccc(O)c(O)c2)n1 | 9.13%
67 | COc1ccc(OC)c(NC(=O)c2sc3nc(-c4cccs4)ccc3c2N)c1 | 5.66%
68 | O=C(NC1CCCCCC1)c1cccnc1S | 3.04%
69 | CN1CCN(C(=O)CNC(=O)C2CCCCC2)CC1 | -1.44%
70 | C=CCN1C(=O)N/C(=C/c2cc(C)n(-c3ccccc3Cl)c2C)C1=O | 3.75%
71 | O=C(O)c1cc(Cl)c2c(c1)[C@@H]1C=CC[C@@H]1[C@H](c1ccccc1F)N2 | 12.7%
72 | CN(C)c1ccc(NC(=O)c2ccc(Cn3cc(Cl)cn3)o2)cc1 | 2.49%
73 | Cc1ccc2oc(Nc3ncc(C(=O)Nc4ccccc4C)c(C)n3)nc2c1 | -0.318%
74 | Cc1cc(C(=O)NCc2ccc(Cl)cc2)n(-c2ccccc2)n1 | -2.14%
75 | O=Cc1cn(Cc2c(F)cccc2Cl)c2ccccc12 | -4.53%
76 | Cc1cccc(/N=C/C2=C(O)CCCC2)c1Cl | -4.12%
77 | CC[C@H](NC(=O)[C@H](Cc1c(F)cccc1F)NC(=O)c1ccc(-c2ccccc2Cl)cc1)C(=O)c1nc2ncccc2o1 | 2.87%
78 | CCOC(=O)c1c(N)sc(C(=O)N(C)C)c1C | 7.31%

Row | Structure (SMILES) | % Inhibition @ 10 uM
79 | N#C/C(=C/c1cccc(Cl)c1)c1nc(-c2ccc(Br)cc2)cs1 | -1.25%
80 | c1ccc2c(Cn3nnc4c(N5CCOCC5)ncnc43)cccc2c1 | -0.0108%
81 | NS(=O)(=O)c1ccc2cc(O)ccc2c1 | -0.216%
82 | CCC1CCC(N2CCCC(CO)C2)CC1 (stereo not drawn) | 4.65%
83 | O=C1c2ccccc2C(=O)N1OCc1ccccc1 | -4.11%
84 | C=CCOc1ccc(/C=C2\C(=O)N(CCCOC)C(C)=C2C(=O)OC)cc1 | -3.06%
85 | Cc1ccccc1-c1nc(CS(=O)(=O)CC(=O)NC2CCCCC2C)c(C)o1 (stereo not drawn) | -1.89%
86 | CCOc1ccc(C(=O)OC2CC3CCC(C2)N3C)cc1 (stereo not drawn) | 12.8%
87 | CCc1cc(C(=O)Nc2ccc(C)cc2Br)cs1 | 3.04%
88 | Cc1ccnc(NS(=O)(=O)c2ccc(NC(=O)C(C)C)cc2)n1 | -1.44%
89 | CCOc1cc(C2c3c(-c4ccccc4O)n[nH]c3C(=O)N2CCO)ccc1O (stereo not drawn) | -3.12%
90 | CCCc1[nH]nc2c1C1(CCN(C(=O)OCC)CC1)C(C#N)=C(N)O2 | -6.62%
91 | CC1(C)CCc2c(O)c(-c3ccccc3)c(=O)n(-c3ccccc3)c2C1 | 3.05%
92 | CCC1CCCCN1S(=O)(=O)c1ccc(Cl)cc1 (stereo not drawn) | -0.856%
93 | Cc1ccccc1CN1CCN(c2ccc(Cl)cc2)CC1 | -2.7%
94 | O=C(O)C1CC(c2ccccc2O)=NO1 (stereo not drawn) | -1.37%
95 | COc1cc(C2C(C#N)=C(N)Oc3[nH]nc(-c4ccc(Cl)c(Cl)c4)c32)ccc1O (stereo not drawn) | -0.968%
96 | COc1ccc(CN2CCN(Cc3cccc(F)c3)CC2)c(OC)c1OC | 5.99%
97 | CCc1ccc(NC(=O)c2ccc(C(=O)Nc3ccc(CC)cc3)cc2)cc1 | -1.22%
98 | CCOc1ccc(CCNC(=O)c2ccc(CS(=O)c3ccc(Br)cc3)o2)cc1 (stereo not drawn) | -0.434%
99 | O=C(Nc1ccc(NC(=O)c2cccs2)cc1)c1cccc(F)c1 | -5.26%
100 | Oc1ccccc1-c1nc(N2CCCC2)c2ccccc2n1 | 9.05%
101 | COc1ccc2c(c1)C(SCC(=O)NCCc1ccc(Cl)cc1)CC(C)(C)O2 (stereo not drawn) | -1.89%
102 | O=C(Cn1ncc2c3ccccc3n(Cc3ccc(F)cc3)c2c1=O)NCCN1CCOCC1 | 0.137%
